# The whole screen tested about 48,000 compounds, of which about 1,200 (2.5%) were called active. Not shown: some 2% with an inconclusive outcome.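 How the source made its calls: active means activation of at least 60% and not above a set upper limit (about 1 call in 100 departs from these limits); inconclusive means activation of 40% to 60%, or above that upper limit; inactive means activation under 40%.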 Some of the results follow.
# Biological target: Probable G-protein coupled receptor 32 (Homo sapiens) (UniProt O75388)
# UniProt O75388, sequence (O75388 whole entry, looked up): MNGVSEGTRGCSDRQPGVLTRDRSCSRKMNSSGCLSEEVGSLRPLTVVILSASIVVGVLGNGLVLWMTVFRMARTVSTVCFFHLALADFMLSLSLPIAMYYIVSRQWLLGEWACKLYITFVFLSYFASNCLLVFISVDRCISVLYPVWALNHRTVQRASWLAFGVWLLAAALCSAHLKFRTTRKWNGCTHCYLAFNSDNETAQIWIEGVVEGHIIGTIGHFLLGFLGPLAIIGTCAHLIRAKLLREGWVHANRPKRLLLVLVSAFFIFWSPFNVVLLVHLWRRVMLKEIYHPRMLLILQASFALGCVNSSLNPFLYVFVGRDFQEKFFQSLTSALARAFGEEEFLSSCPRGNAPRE
# Experiment: qHTS for Agonists of Human Resolvin D1 Receptor DRV1; further: 0% is about no effect
# Conditions: CHO-K1 GPR32 beta-arrestin PathHunter luminescence, 90 min; at 76.9 µM; active compounds read high; zero percent set by DMSO-only wells
# How it was run: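 PathHunter beta-arrestin recruitment in CHO-K1 cells stably expressing ProLink-tagged GPR32. Cells were exposed to compound for 90 min at 37 C, then chemiluminescence was read after 1 h detection at ambient temperature; DMSO served as basal control.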
row,Compound,activation
1,O=C(Nc1ccc(C(=O)OCc2cc(=O)n3nc(C4CC4)sc3n2)cc1)c1cccc(Cl)c1,inactive: -12.5%
2,CCc1ccccc1NC(=O)C(CC)Oc1ccccc1-c1nnc(-c2ccccc2)o1 (centres undefined),inactive: -1.84%
3,CCCCN(Cc1ccccc1)S(=O)(=O)c1cc(Br)cc2c1N(C(C)=O)CC2,inactive: 5.17%
4,O=C1CC(c2ccc(Cl)cc2)c2cc3c(cc2N1)OCCO3 (centres undefined),active: 80.4%
5,COc1ccc(C(=O)Nc2c(C(=O)c3ccc(F)cc3)oc3ccccc23)cc1,inactive: -2.55%
6,CCc1cccc(C)c1NC(=O)C1CCN(S(=O)(=O)c2cccc3nonc23)CC1,inactive: -8.93%
7,CCCSc1ncc(Cl)c(C(=O)Nc2scc(-c3ccc(C)cc3)c2C(=O)OCC)n1,inactive: -13.2%
8,O=C1NC(=O)[C@@]2(CCOc3ccc(F)cc32)N1,inactive: -23.1%
9,CCOCCCNC(=O)c1cc(=O)[nH]c2ccc(S(=O)(=O)N3CCCC3)cc12,inactive: -3.06%
10,CCOc1ccc(CNC(=O)c2cccn2-c2nnc(N3CCCCC3)s2)cc1OC,inactive: 12%
11,CCCCC(=O)Nc1c(C(=O)N2CCN(c3ccccc3)CC2)oc2ccccc12,inactive: -32.3%
12,COc1ccc(-c2nc3c(c(SCC(=O)Nc4ccccc4OC)n2)Cc2cccc(C)c2O3)cc1,inactive: -1.97%
13,CCCCCn1c(=O)[nH]c2cc(C(=O)N3CCN(c4cccc(OC)c4)CC3)ccc2c1=O,inactive: 35.7%
14,Cc1cc(C)cc(OCc2cc(=O)n3c4c(sc3n2)CCCC4)c1,inactive: -22.7%
15,CCC(C)NC(=O)Cc1ccc(NC(=O)N2CCCCc3ccccc32)cc1 (centres undefined),inactive: -7.21%
16,CC(C)Oc1ccc(CNC(=O)C2CCCCN2S(=O)(=O)c2ccc(F)cc2)cc1 (centres undefined),inactive: -4.43%
17,O=C(CS(=O)(=O)c1cccc2nsnc12)Nc1ccc(F)cc1F,inactive: -10.4%
18,N#Cc1ccccc1NC(=O)C(=O)NCC(c1ccc2c(c1)OCO2)N1CCOCC1 (centres undefined),inactive: -11.7%
19,Cc1ccc(-n2c(=O)c3oc4ccccc4c3n(CC(=O)Nc3ccc(F)c(Cl)c3)c2=O)cc1C,inactive: -20.4%
20,CC(=O)N1CCOc2cc(S(=O)(=O)Nc3c(C)cccc3C(C)C)c(Cl)cc21,inactive: -32.6%
21,CC(C)CCNC(=O)c1c2c(nc3ccccc13)C(=O)N(C1CCCCC1)C2,inactive: -1.93%
22,Cc1ccc(-c2nc(CS(=O)CC(=O)N3CCN(c4ccc(F)cc4)CC3)c(C)o2)cc1 (centres undefined),inactive: 9.81%
23,CCCCN(C)C(=O)c1ccc2c(c1)N(Cc1ccc(F)cc1)C(=O)c1ccccc1S2(=O)=O,inactive: -30.6%
24,O=C(Nc1ccccc1F)C1CCN(S(=O)(=O)c2ccc3c(c2)CCCN3C(=O)C2CCC2)CC1,inactive: -13.8%
25,CCc1cccc(C)c1NC(=O)c1ccc2c(c1)CCN2S(=O)(=O)CC,inactive: 1.86%
26,CC(=O)Nc1ccc(NC(=O)c2cc(-c3cccs3)on2)cc1,inactive: 36.2%
27,O=C(CSC1=Nc2ccccc2N=C(c2ccc(F)cc2)C1)Nc1ccc(Cl)cc1,inactive: -0.713%

row,Compound,activation
1,COc1ccc(Cl)cc1NC(=O)NCCc1c(C)nn(C)c1C,inactive: 15.4%
2,COc1ccc(OC)c(NC(=O)Cn2c(=O)n(Cc3nc(C)no3)c(=O)c3ccccc32)c1,inactive: -9.8%
3,COc1ccc(Nc2ncnc3onc(C)c23)c(OC)c1,inactive: -6.66%
4,Cc1ccc(Sc2c(C)nn(C(=O)c3ccc(Br)cc3)c2C)cc1,inactive: 39.6%
5,CC(C)(C)c1nnc(NS(=O)(=O)c2ccc(N)cc2)s1,inactive: 7.68%
6,COc1ccccc1CNS(=O)(=O)c1ccc2c(c1)CC(C)N2C(=O)C1CCC1 (centres undefined),inactive: 19.1%
7,COc1ccc(N2CCN(C(=O)C(C)n3c(=O)cc(C(F)(F)F)c4c(C)nn(C)c43)CC2)cc1 (centres undefined),inactive: 27.6%
8,CCOc1ccc(NC(=O)c2cc(C)nc3c2c(C)nn3-c2cccc(F)c2)cc1,inactive: -23%
9,Cn1cnc(S(=O)(=O)N2CCCC(C(=O)NCc3ccccc3)C2)c1 (centres undefined),inactive: -12.5%
10,Cc1cccc(N2CCN(C(=O)Cn3ncc4c([nH]c5ccccc54)c3=O)CC2C)c1 (centres undefined),inactive: -5.62%
11,COc1ccc(-c2cc(C)no2)cc1S(=O)(=O)NC1CCC(C)CC1 (centres undefined),inactive: -4.59%
12,Cc1ccc(NC(=O)C2CCCN2S(=O)(=O)c2ccc3c(c2)C(C)(C)C(=O)N3C)cc1 (centres undefined),inactive: -3.46%
13,Cc1ccc(S(=O)(=O)c2nc(-c3ccco3)oc2SCc2ccc(F)cc2)cc1,inactive: -11.1%
14,CC1(C(=O)NC2CCCCC2)Cc2ccccc2C(=O)N1Cc1ccc(F)cc1 (centres undefined),inactive: -13.7%
15,COc1ccc(S(=O)(=O)NCCc2sc3nc(-c4ccc(C)cc4)nn3c2C)cc1F,inactive: 3.3%
16,O=C(CSc1nc2ccccc2nc1Cc1ccccc1)Nc1ccccc1C(F)(F)F,inactive: -44.4%
17,CCOc1ccc(-n2ccnc2SCC(=O)Nc2ccc3c(c2)OCO3)cc1,inactive: -0.501%
18,Nc1nc(F)nc2c1ncn2[C@@H]1O[C@H](CO)[C@@H](O)[C@@H]1O,inactive: 3.3%
19,CCOc1ccc(CNC(=O)c2cnc3sc(N(CC)CC)nn3c2=O)cc1,inactive: -10.1%
20,O=C(NCCS(=O)(=O)N1CCN(c2ccccc2F)CC1)C1CC(=O)N(c2ccccc2)C1 (centres undefined),inactive: -17.7%
21,COc1cccc(NC(=O)c2c(N3CCCC3=O)c3cc(C)ccc3n2C)c1,inactive: 9.29%
22,CCCNc1ncnc2c1c(-c1ccccc1)cn2-c1ccc(OCC)cc1,inactive: -39.4%
23,COc1ccc(NC(=O)CCn2c(-c3ccc(F)cc3)cc(C(C)=O)c2C)c(OC)c1,inactive: -15.8%
24,O=c1cc(CSc2ccccc2)[nH]c2ccc(F)cc12,inactive: 16.2%
25,COc1ccc(-c2cc(C(C)=O)c(C)n2CCC(=O)Nc2ccc(C)c(Cl)c2)cc1,inactive: -26%
26,O=C(COc1ccc(F)cc1)Nc1ccc(S(=O)(=O)N(Cc2ccccc2)c2ccccc2)cc1,inactive: -11.4%
27,CCc1ccc(CNC(=O)c2sc3nc[nH]c(=O)c3c2C)cc1,inactive: 1.09%
